# Several values for one entry are separate records, joined by “and”; a condition that tells them apart may be missing. Equal values may be shown once. Inconclusive means that the source gave no clear call. Such entries were picked first, then a sample of the others. For part of these data: Where the call is inconclusive, the potency comes from a doubtful curve fit. Some structures have more than one record in an assay (separate samples or runs), and their calls can disagree. Activity calls are given as the source filed them. Unless noted, the call rests on the fitted dose curve; in most records, active means well fitted curve in the direction sought with a large enough effect in the repeat runs; inconclusive means weak or mixed curves; inactive means no such curve, though single readings can be large; an effect the other way counts as inactive or inconclusive.
# How the values were obtained:
# [1] = qHTS assay to identify small molecule antagonists of the thyroid receptor (TR) signaling pathway - cell viability counter screen (AID 743064); conditions: GH3.TRE-Luc viability, CellTiter-Fluor, 24 h; further: nearly all actives have a fitted effect of over 50% in size; further: potency means the concentration at half of the fitted maximal effect
# Summary of the method: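 Fluorescence from CellTiter-Fluor, added after 23.5 h exposure at 37 °C, reported viability of GH3.TRE-Luc cells co-treated with compound and 1 nM T3. Measured in the same wells as the luciferase TR readout.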
# [2] = qHTS assay to identify small molecule antagonists of the thyroid receptor (TR) signaling pathway (AID 743065); conditions: GH3.TRE-Luc, T3-stimulated luciferase inhibition, 23.5 h; series mostly up to 70.3 µM; further: nearly all actives have a fitted effect of over 55% in size; further: potency means the concentration at half of the fitted maximal effect
# Summary of the method: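 Antagonism measured as loss of luciferase signal in GH3 cells stably carrying a TRE-luciferase reporter, co-treated with compound and T3 (1 nM final) for 23.5 h at 37 C. Viability was read in the same well by CellTiter-Fluor.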
# [3] = tested on: thyroid hormone receptor (rat, GH3 cells); experiment: qHTS assay to identify small molecule agonists of the thyroid receptor (TR) signaling pathway (AID 743066; calls by dose curve; further: potency means the concentration at half of the fitted maximal effect); conditions: GH3.TRE-Luc cells, TR agonist luciferase, 24 h; activation: at 83.9 µM (top of the series) unless noted
# [4] = biological target: Estrogen receptor (Homo sapiens) (UniProt P03372); experiment: qHTS assay to identify small molecule antagonists of the estrogen receptor alpha (ER-alpha) signaling pathway (AID 743069; active means well fitted curve in the direction sought with a large enough effect in the signal ratio in the repeat runs, not every such curve was filed as active; inconclusive means weak or mixed curves, or effect the other way; inactive means no such curve, though single readings can be large or run the other way; the % refers to the signal ratio; further: potency means the concentration at half of the fitted maximal effect); conditions: HEK293 ER-alpha-UAS-bla, beta-lactamase ratio, antagonist mode; activity, negative = inhibition: at 69.4 µM (top of the series) unless noted
# Sequence of UniProt P03372 (P03372 whole entry, looked up): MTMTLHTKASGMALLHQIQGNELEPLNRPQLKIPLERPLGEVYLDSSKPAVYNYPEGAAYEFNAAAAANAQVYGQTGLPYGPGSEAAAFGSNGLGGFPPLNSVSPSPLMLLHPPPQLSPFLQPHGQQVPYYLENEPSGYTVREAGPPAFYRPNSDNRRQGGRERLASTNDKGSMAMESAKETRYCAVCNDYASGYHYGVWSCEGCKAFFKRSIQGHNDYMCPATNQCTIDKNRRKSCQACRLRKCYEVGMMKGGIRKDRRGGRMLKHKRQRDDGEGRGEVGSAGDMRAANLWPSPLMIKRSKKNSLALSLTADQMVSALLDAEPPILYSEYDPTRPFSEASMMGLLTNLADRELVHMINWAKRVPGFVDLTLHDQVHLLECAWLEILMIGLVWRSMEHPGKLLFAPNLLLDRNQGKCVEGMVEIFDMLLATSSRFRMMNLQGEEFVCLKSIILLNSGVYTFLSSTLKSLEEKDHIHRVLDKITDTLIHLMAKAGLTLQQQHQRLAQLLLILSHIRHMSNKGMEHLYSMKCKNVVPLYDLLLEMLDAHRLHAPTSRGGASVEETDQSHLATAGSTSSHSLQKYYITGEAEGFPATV
# Summary of the method: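 ER-alpha-UAS-bla GripTite HEK293 line; 2% charcoal-stripped FBS overnight; plated, 4 hr 37C/5% CO2; cpd in DMSO + 17beta-estradiol, 18 hr 37C; LiveBLAzer B/G FRET substrate 2 hr RT; fluorescence intensity.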
# [5] = qHTS assay to identify small molecule antagonists of the estrogen receptor alpha (ER-alpha) signaling pathway - cell viability counter screen (AID 743074; calls by dose curve;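 further: HEK293 cells carrying ER-alpha-UAS-bla reporter stimulated with 17beta-estradiol; nearly all actives have a fitted effect of over 45% in size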; further: potency means the concentration at half of the fitted maximal effect); conditions: ERalpha-bla HEK293 viability, CellTiter-Glo luminescence, 18 h; series mostly up to 69.4 µM
# [6] = biological target: Estrogen receptor (Homo sapiens) (UniProt P03372); experiment: qHTS assay to identify small molecule agonists of the estrogen receptor alpha (ER-alpha) signaling pathway (AID 743075; calls by dose curve;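 further: HEK293 GripTite cells with ER-alpha and UAS-driven beta-lactamase reporter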); conditions: HEK293 ER-alpha-UAS-bla, beta-lactamase FRET ratio, 18 h; series mostly up to 70.1 µM
# [7] = activity change, negative = cytotoxic: at 70.3 µM (top of the series) unless noted
# On the % scale 0 is the no-effect control and ±100 the full control effect; tags describe the fitted curve by direction and shape or compound fluorescence and quenching.
structure (smiles),measurement,setting,value
CN1CCN(C2=Nc3ccccc3Oc3ccc(Cl)cc32)CC1,Potency,[1]; [7],"inconclusive: 7.17 µM [cytotoxic, full curve, poor fit]"
same,Potency,[2],"inconclusive: 4.52 µM [inhibitor, full curve]"
CC(C)(C)NCC(O)COc1ccc(NC(=O)NC2CCCCC2)cc1 (stereo not drawn),Potency,[1]; [7],inconclusive: 33.5 µM [cytotoxic]
same,Potency,[2],inconclusive: 33.5 µM [inhibitor]
CN(C)C(=O)C(CCN1CCC(O)(c2ccc(Cl)cc2)CC1)(c1ccccc1)c1ccccc1,Potency,[1]; [7],active: 8.41 µM
same,Potency,[2],active: 8.41 µM
same,activation,[3],inconclusive: -8.47% [phenotype inactive]
same,Potency,[4],"inconclusive: 19 µM [rising, partial curve, poor fit]"
same,Potency,[5],"inconclusive: 9.52 µM [cytotoxic, partial curve, poor fit]"
O=C(NCC1CCCCN1)c1cc(OCC(F)(F)F)ccc1OCC(F)(F)F (stereo not drawn),Potency,[1]; [7],"active: 29.8 µM and inconclusive: 47.7 µM [cytotoxic, partial curve]"
same,Potency,[2],"inconclusive: 33.5 µM [inhibitor, single point]"
same,activation,[3],inconclusive: -8.12% [phenotype inactive]
same,Potency,[5],"inconclusive: 23.9 µM [cytotoxic, single point]"
CC(C)(C)c1ccc(OC(=O)c2ccccc2O)cc1,Potency,[1]; [7],"inconclusive: 15.4 µM [cytotoxic, partial curve, poor fit]"
same,Potency,[2],"inconclusive: 77 µM [inhibitor, single point]"
F[B-](F)(F)F,Potency,[1]; [7],"inconclusive: 80.2 µM [rising, single point] and inconclusive: 545 nM [rising, single point]"
same,Potency,[2],inactive
Nc1ccn([C@H]2CC[C@@H](CO)O2)c(=O)n1,"activity change, negative = cytotoxic",[1]; [7],inconclusive: 34.2%
same,"activity change, negative = cytotoxic",[1]; at 70.3 µM (top of the series),inactive: 16.6% and inactive: 14.8%
COc1ccc(CN(CCN(C)C)c2ccccn2)cc1,Potency,[1]; [7],"inconclusive: 29.8 µM [cytotoxic] and inconclusive: 27 µM [cytotoxic, single point] and inconclusive: 31.7 µM [cytotoxic, partial curve, poor fit]"
same,Potency,[2],"inconclusive: 23.7 µM [inhibitor, partial curve] and inconclusive: 27 µM [inhibitor, single point] and inconclusive: 50.2 µM [inhibitor, partial curve, poor fit]"
same,Potency,[5],"inactive and inconclusive: 54.4 µM [cytotoxic, single point] and inconclusive: 3.19 µM [cytotoxic, partial curve, poor fit]"
CC(=O)c1ccc2c(c1)N(CCCN1CCC(CCO)CC1)c1ccccc1S2,Potency,[1]; [7],active: 10.1 µM
same,activation,[3],inconclusive: -9.01% [phenotype inactive] [at 39.4 µM]
same,Potency,[4],inactive
same,Potency,[6],inactive
O=Cc1ccccc1S(=O)(=O)O,Potency,[1]; [7],inactive
same,Potency,[3],active: 68.5 µM
Cc1noc(NS(=O)(=O)c2ccc(N)cc2)c1C,Potency,[1]; [7],inactive
same,Potency,[3],"inconclusive: 30.6 µM [activator, partial curve]"
same,Potency,[4],"inactive and inconclusive: 5.49 µM [fluorescent, full curve, poor fit]"
same,Potency,[5],"inconclusive: 5.49 µM [cytotoxic, partial curve, poor fit]"
CN(C)CCOC(c1ccccc1)c1ccccc1,Potency,[1]; [7],"inconclusive: 54.5 µM [cytotoxic, partial curve, poor fit]"
same,Potency,[2],active: 48.6 µM [middle of 4 runs]
same,activation,[3],inconclusive: -7.32% [phenotype inactive]
same,Potency,[5],active: 9.52 µM
Fc1ccc(Br)cc1,Potency,[1]; [7],inactive
same,Potency,[2],inactive
same,Potency,[4],inactive
same,Potency,[5],"inconclusive: 55.5 µM [cytotoxic, single point]"
C=CC(=O)OCCCCCCCC,Potency,[1]; [7],inactive
same,Potency,[3],inactive
CC(C)OP(=O)(CP(=O)(OC(C)C)OC(C)C)OC(C)C,Potency,[1]; [7],"inconclusive: 61.1 µM [rising, partial curve, poor fit]"
same,Potency,[2],inactive
same,Potency,[4],"inconclusive: 49 µM [activator, partial curve]"
FC(F)(F)c1ccc(Cl)c(Cl)c1,Potency,[1]; [7],"inconclusive: 59.8 µM [rising, single point]"
same,Potency,[2],inactive
same,"activity, negative = inhibition",[4],inconclusive: -21.6%
